PubChem BioAssay (Tox21)
“And” between values parts separate entries of the source, which are not always exact repeats. Identical values can stand only once. Inconclusive results, whose numbers are uncertain, are shown with a selection of clear calls. For some assays here: Potencies of inconclusive entries are doubtful fits and often do not repeat. The source made the active and inactive calls. Unless noted, the call rests on the fitted dose curve.

Experiments:
[1] = target: Estrogen receptor beta (Homo sapiens) (UniProt Q92731); assay: qHTS assay to identify small molecule agonists of the estrogen receptor beta (ER-beta) signaling pathway (AID 1259377; active means well fitted activation curve with a large enough effect in the signal ratio in the repeat runs, not every such curve was filed as active; inconclusive means weak or mixed curves, or effect the other way; the % refers to the signal ratio; further: potency means the concentration at half of the fitted maximal effect; on activation: on the % scale 0 is the no-effect control and ±100 the full control effect); settings: ER-beta-UAS-bla HEK293T, beta-lactamase FRET ratio, 16 h; activation: at 92.4 µM (top of the series) unless noted
Summary of the method: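 Beta-lactamase reporter readout: fluorescence of LiveBLAzer B/G FRET substrate after 2 h at room temperature, following 16 h compound treatment of ER-beta-UAS-bla HEK293T cells at 37C in 2% charcoal-stripped FBS medium.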

[2] = qHTS assay to identify small molecule agonists of the progesterone receptor (PR) signaling pathway - cell viability counter screen (AID 1346799); further: nearly all actives have a fitted effect of over 45% in size; further: potency means the concentration at half of the fitted maximal effect
Summary of the method: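 HEK293T PR-UAS-bla, 3,000 cells/well, 2% charcoal-stripped FBS; 6 h settle, compound 16 h at 37C/5% CO2; LiveBLAzer 2 h RT, then CellTiter-Glo 30 min RT, luminescence read.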

[3] = target: Estrogen receptor beta (Homo sapiens) (UniProt Q92731); assay: qHTS assay to identify small molecule antagonists of the estrogen receptor beta (ER-beta) signaling pathway (AID 1259378; active means well fitted inhibition curve with a large enough effect in the signal ratio in the repeat runs, not every such curve was filed as active; inconclusive means weak or mixed curves, or effect the other way; inactive means no such curve, though single readings can be large or run the other way; the % refers to the signal ratio; further: potency means the concentration at half of the fitted maximal effect; on activity, negative = inhibition: on the % scale 0 is the no-effect control and ±100 the full control effect); settings: ER-beta-UAS-bla HEK293T, beta-lactamase FRET ratio, 16 h
Summary of the method: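 Antagonist mode: compounds added to beta-lactamase reporter HEK293T ER-beta-UAS cells stimulated with E2 (1nM final), 16 hr at 37C. LiveBLAzer B/G FRET substrate, 2 hours room temperature, fluorescence read-out.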

[4] = qHTS assay to identify small molecule agonists of the estrogen receptor beta (ER-beta) signaling pathway - cell viability counter screen (AID 1259380; active means well fitted curve in the direction sought with a large enough effect in the repeat runs; inconclusive means weak or mixed curves; inactive means no such curve, though single readings can be large; an effect the other way counts as inactive or inconclusive; further: potency means the concentration at half of the fitted maximal effect; nearly all actives have a fitted effect of over 30% in size)
Summary of the method: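 Compounds dissolved in DMSO were pin-transferred onto ER-beta-UAS-bla HEK293T cells that had settled 6 hr, and exposure ran 16 hr at 37C. Following the reporter read, CellTiter-Glo luminescence after 30 min at room temperature indicated cytotoxicity.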

[5] = qHTS assay to identify small molecule antagonists of the progesterone receptor (PR) signaling pathway - cell viability counter screen (AID 1346798; active means well fitted curve in the direction sought with a large enough effect in the repeat runs; inconclusive means weak or mixed curves; inactive means no such curve, though single readings can be large; an effect the other way counts as inactive or inconclusive; further: potency means the concentration at half of the fitted maximal effect; nearly all actives have a fitted effect of over 50% in size)
Summary of the method: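 Luminescence readout (CellTiter-Glo, 30 min, RT) of viability in PR-UAS-bla HEK293T cells exposed to compound and R5020 agonist for 16 hr at 37C, 5% CO2; run in the same wells as the beta-lactamase reporter read.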

[6] = qHTS assay to identify small molecule agonists of the androgen receptor (AR) signaling pathway in the presence of an antagonist - cell viability counter screen (AID 1259379; active means well fitted curve in the direction sought with a large enough effect in the repeat runs; inconclusive means weak or mixed curves; inactive means no such curve, though single readings can be large; an effect the other way counts as inactive or inconclusive;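 further: MDA-kb2 human breast cancer cells carrying an MMTV luciferase reporter; on the % scale 0 is the no-effect control and ±100 the full control effect; nearly all actives have a fitted effect of over 25% in size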)
Summary of the method: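 Each compound was tested at 15 concentrations on MDA-kb2 cells in the presence of 3.0uM nilutamide. Viability was measured by CellTiter-Fluor fluorescence after a 16 hr incubation at 37C in a CO2-free atmosphere.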

[7] = target: Progesterone receptor (Homo sapiens) (UniProt P06401); assay: qHTS assay to identify small molecule agonists of the progesterone receptor (PR) signaling pathway (AID 1346784); settings: PR-UAS-bla HEK293T, beta-lactamase FRET ratio, 16 h; activation: at 92.4 µM (top of the series) unless noted; further: on the % scale 0 is the no-effect control and ±100 the full control effect; nearly all actives have a fitted effect of over 30% in size
Summary of the method: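 HEK 293T PR-UAS-bla reporter cells, 2% charcoal-stripped FBS; 6 hr settle at 37C/5% CO2, compound (DMSO) 16 hr, LiveBLAzer B/G FRET substrate 2 hr RT, fluorescence intensity read.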

[8] = target: Progesterone receptor (Homo sapiens) (UniProt P06401); assay: qHTS assay to identify small molecule antagonists of the progesterone receptor (PR) signaling pathway (AID 1346795; active means well fitted inhibition curve with a large enough effect in the signal ratio in the repeat runs, not every such curve was filed as active; inconclusive means weak or mixed curves; the % refers to the signal ratio; further: potency means the concentration at half of the fitted maximal effect); settings: PR-UAS-bla HEK293T, beta-lactamase FRET ratio, 16 h; activity change, negative = inhibition: at 92.4 µM (top of the series) unless noted
Summary of the method: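 Beta-lactamase reporter, HEK293T PR-UAS-bla line; 2% charcoal-stripped FBS; 6 hr pre-incubation, 37C/5% CO2. Compound + R5020 1 nM final, 16 hr. LiveBLAzer B/G FRET substrate, 2 hr RT; fluorescence intensity read.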

[9] = qHTS assay to identify small molecule antagonists of the TGF-beta/Smad signaling pathway - cell viability counter screen (AID 1346824; active means well fitted curve in the direction sought with a large enough effect in the repeat runs; inconclusive means weak or mixed curves; inactive means no such curve, though single readings can be large; an effect the other way counts as inactive or inconclusive; further: on the % scale 0 is the no-effect control and ±100 the full control effect; nearly all actives have a fitted effect of over 50% in size)
Summary of the method: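 Cytotoxicity counter-screen run in the same wells as the beta-lactamase Smad reporter read: CellTiter-Glo luminescence after 30 min at room temperature. HEK 293T SBE-bla cells had 5 hr compound exposure at 37 C with TGF-beta1 (0.25 ng/mL stock).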

[10] = qHTS assay to identify small molecule agonists of the TGF-beta/Smad signaling pathway - cell viability counter screen (AID 1346829; active means well fitted curve in the direction sought with a large enough effect in the repeat runs; inconclusive means weak or mixed curves; inactive means no such curve, though single readings can be large; an effect the other way counts as inactive or inconclusive; further: potency means the concentration at half of the fitted maximal effect; nearly all actives have a fitted effect of over 45% in size)
Summary of the method: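 After overnight seating at 37 C and 5% CO2, reporter cells got compounds for 5 hr and FRET substrate for 2 hr; cell viability then came from CellTiter-Glo luminescence.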

[11] = qHTS assay to identify small molecule agonists of the TGF-beta/Smad signaling pathway (AID 1346859; active means well fitted activation curve with a large enough effect in the signal ratio in the repeat runs, not every such curve was filed as active; inconclusive means weak or mixed curves; the % refers to the signal ratio; further: on the % scale 0 is the no-effect control and ±100 the full control effect); settings: SBE-bla HEK293T, TGF-beta/Smad beta-lactamase reporter, 5 h; activation: at 76.8 µM (top of the series)
Summary of the method: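 Read-out: fluorescence at 460 and 530 nm (405 nm excitation) after a 2 hr room-temperature incubation with beta-lactamase FRET substrate. SBE-bla HEK 293T cells had been treated with test compounds for 5 hr at 37 C.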

[12] = activity, negative = inhibition: at 92.4 µM (top of the series) unless noted
Tags describe the fitted curve by direction and shape or compound fluorescence and quenching.

Chain of UniProt Q92731 (Q92731 whole entry, looked up): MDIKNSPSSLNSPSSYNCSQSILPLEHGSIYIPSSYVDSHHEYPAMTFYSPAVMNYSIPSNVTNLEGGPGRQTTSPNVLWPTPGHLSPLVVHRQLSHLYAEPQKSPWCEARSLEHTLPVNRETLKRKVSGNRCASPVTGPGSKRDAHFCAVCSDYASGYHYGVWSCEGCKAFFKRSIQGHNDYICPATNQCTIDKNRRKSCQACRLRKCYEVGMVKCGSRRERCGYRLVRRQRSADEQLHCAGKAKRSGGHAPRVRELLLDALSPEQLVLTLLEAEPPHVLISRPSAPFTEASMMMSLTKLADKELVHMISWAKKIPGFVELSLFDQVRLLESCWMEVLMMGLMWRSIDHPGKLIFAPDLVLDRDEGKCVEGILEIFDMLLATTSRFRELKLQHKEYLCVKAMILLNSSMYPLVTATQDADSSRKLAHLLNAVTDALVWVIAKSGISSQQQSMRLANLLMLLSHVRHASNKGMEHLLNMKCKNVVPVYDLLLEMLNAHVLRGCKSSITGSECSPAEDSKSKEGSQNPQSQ
Chain of UniProt P06401 (P06401 whole entry, looked up): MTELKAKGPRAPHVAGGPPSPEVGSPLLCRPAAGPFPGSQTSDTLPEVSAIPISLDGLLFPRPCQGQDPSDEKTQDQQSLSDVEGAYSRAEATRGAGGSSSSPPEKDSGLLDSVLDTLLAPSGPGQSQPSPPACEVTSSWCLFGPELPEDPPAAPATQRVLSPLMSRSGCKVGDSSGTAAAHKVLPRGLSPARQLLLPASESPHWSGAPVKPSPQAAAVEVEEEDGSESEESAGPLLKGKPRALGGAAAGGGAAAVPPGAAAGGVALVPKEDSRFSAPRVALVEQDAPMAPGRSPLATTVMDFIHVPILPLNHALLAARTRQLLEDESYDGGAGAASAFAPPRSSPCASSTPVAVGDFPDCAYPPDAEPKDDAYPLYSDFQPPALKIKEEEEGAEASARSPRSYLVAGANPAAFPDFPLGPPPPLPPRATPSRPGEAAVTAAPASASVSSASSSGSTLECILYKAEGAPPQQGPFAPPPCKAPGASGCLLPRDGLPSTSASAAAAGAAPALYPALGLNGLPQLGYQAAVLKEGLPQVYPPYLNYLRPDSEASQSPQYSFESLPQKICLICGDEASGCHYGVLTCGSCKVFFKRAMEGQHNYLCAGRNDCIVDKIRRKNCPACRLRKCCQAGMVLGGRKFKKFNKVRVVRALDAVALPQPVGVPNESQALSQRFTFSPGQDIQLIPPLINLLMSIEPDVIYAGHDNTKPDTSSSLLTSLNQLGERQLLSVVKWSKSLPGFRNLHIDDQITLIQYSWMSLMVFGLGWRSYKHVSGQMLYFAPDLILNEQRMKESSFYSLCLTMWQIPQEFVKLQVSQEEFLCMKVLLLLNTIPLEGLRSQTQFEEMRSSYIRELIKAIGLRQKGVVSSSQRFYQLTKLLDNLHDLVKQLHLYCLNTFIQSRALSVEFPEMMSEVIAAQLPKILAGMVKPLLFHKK

## CN1C(=O)N(C)C(O)C1O (stereo unspecified)
[1]
  Potency: inactive
[2]
  Potency: inactive

## CC(=O)OCC(=O)[C@@]12N=C(C)O[C@@H]1C[C@H]1[C@@H]3CCC4=CC(=O)C=C[C@]4(C)[C@H]3[C@@H](O)C[C@@]12C
[3]; [12]
  activity, negative = inhibition: inconclusive: -37.7%
[3]; at 42.5 µM (top of the series)
  activity, negative = inhibition: inactive: -21.5%
[4]
  Potency: inconclusive: 54.5 µM [cytotoxic, single point]
[5]
  Potency: inconclusive: 13.7 µM [rising, full curve]
[2]
  Potency: inactive

## Nc1ccc(Oc2cccc(Oc3ccc(N)cc3)c2)cc1
[3]; [12]
  Potency: inconclusive: 19.3 µM [rising, partial curve, poor fit]
[6]
  Potency: inactive
[4]
  Potency: inconclusive: 7.7 µM [cytotoxic, full curve]
[7]
  Potency: inactive
[8]
  Potency: active: 30.6 µM
[5]
  Potency: inconclusive: 24.3 µM [rising, full curve]
[2]
  Potency: inconclusive: 21.7 µM [rising, partial curve]

## Cc1cccnc1
[3]; [12]
  activity, negative = inhibition: inconclusive: 21.7%
[3]; at 92.4 µM (top of the series)
  activity, negative = inhibition: inactive: 1.89%
[2]
  Potency: inactive

## CCCCC(C=O)CC (stereo unspecified)
[1]
  activation: inconclusive: 3.2%
[2]
  Potency: inconclusive: 27.6 µM [cytotoxic, single point]
[9]
  Potency: inactive

## CCOC(=O)c1ccc(O)cc1
[1]
  Potency: inconclusive: 21.7 µM [activator, full curve] and inconclusive: 23.7 µM [activator]
[2]
  Potency: inconclusive: 27.3 µM [rising, single point]
[10]
  Potency: inconclusive: 54.9 µM [cytotoxic]

## N=c1nc(N2CCCCC2)cc(N)n1O
[3]; [12]
  Potency: inactive

## CCCCCCOC(=O)CCC
[1]
  Potency: inactive
[11]
  Potency: inactive
